For 88 compounds, survival results are on record in PubChem BioAssay AID463173 (ICCB-Longwood Screening Facility, Harvard Medical School, 2010).

Hit rate of the full screen: of about 52,000 compounds, about 1,700 (3.3%) were called active. No stated cut-off is given here; in the data, active means survival mostly below about 52% (no sharp cut-off); inactive means mostly above about 56%. The list shows a part of the results.

The subject of the test is Wild type. Kind of test: growth inhibition of S. aureus wild type versus tarO mutant, primary screen, teichoic acid synthesis inhibitors, RN4220, OD600 (AID 463173). The settings on record: S. aureus RN4220 wild type/DeltatarO growth, OD600, 18 h, stronger effect = lower value, screened at 18.75 µg/mL (by protocol).
On to `COc1cccc(N2CCN(C(=O)c3cnn(-c4ccccc4Cl)c3C3CCN(C(=O)OC(C)(C)C)CC3)CC2)c1`, for which the survival is inactive: 121%. In the case of `COc1cccc(NC(=O)C2CCC(CNS(=O)(=O)c3csc(C(N)=O)c3)CC2)c1` (stereo not drawn), the survival is inactive: 132%. As for `CC(=O)c1ccc(NC(=O)CSc2nc(=O)n(Cc3ccccn3)c3c2CCC3)cc1`, the survival is inactive: 73%. Next, `O=C(CCC1N=C2c3ccccc3N=C(SCc3ccc(Cl)cc3)N2C1=O)NCc1cccs1` (stereo not drawn): inactive: 60%; `COc1ccc(OCC(O)Cn2c(=N)n(CCN3CCCCC3)c3ccccc32)cc1` (stereo not drawn): inactive: 75%; `Cc1ccc(NS(=O)(=O)c2ccc3oc(=O)c4ncn(C)c4c3c2)cc1C`: inactive: 76%. As to `COc1ccc(CCNc2ncnc3c2cnn3-c2ccc(C)c(Cl)c2)cc1`, the survival was inactive: 67%. Consider `CN(C)c1ccc(CNC(=O)CN2C(=O)C3CCCCN3c3ccc(C(=O)N4CCCC4)cc32)cc1` (stereo not drawn), for which the survival was inactive: 85%. On to `COc1ccccc1C(=O)n1nc(-c2ccccc2)nc1NCc1ccc(Cl)cc1`, for which the survival is inactive: 66%.

In the case of `O=C(CCc1ccccc1)NC1CC(=O)N(c2cccc(F)c2)C1` (stereo not drawn), the survival was inactive: 81%.

Take `CCC(=O)N1CCc2cc(S(=O)(=O)NC(CC(C)C)C(=O)Nc3cccc(C)c3C)ccc21` (stereo not drawn): the survival was inactive: 85%.

`Cc1ccc(N2CCN(C(=O)c3cccn4c(=O)c5ccc(Cl)cc5nc34)CC2C)cc1` (stereo not drawn): the survival was inactive: 92%. Next, `Cc1ccc(S(=O)(=O)C(CNC(=O)C(=O)NCCc2ccc(Cl)cc2)c2ccco2)cc1` (stereo not drawn): inactive: 121%; `CCC(C)NC(=O)c1cc2n(n1)CCCN(Cc1ccc(C)cc1)C2=O` (stereo not drawn): inactive: 88%. In the case of `O=C1CCC(NC(=O)OCc2ccccc2)(C(=O)O)O1` (stereo not drawn), the survival was inactive: 111%. Next, `CC(=O)Nc1ccc(N=NN2CCCCC2)cc1`: inactive: 99%; `CCn1cc(C(=O)N2CCN(c3ccccc3)CC2)c(=O)c2cc(S(=O)(=O)N(C)C)ccc21`: inactive: 83%; `COc1ccc(C(CNC(=O)c2oc3cc(C)c(C)cc3c2C)N2CCCCC2)cc1` (stereo not drawn): inactive: 102%. Consider `Cc1ccc(Nc2nc(N)nc(CSc3nc4ccccc4s3)n2)cc1`, for which the survival was inactive: 32%. Take `O=C(Cc1ccc(F)cc1)NCCc1csc2nc(-c3ccccc3F)nn12`: the survival is inactive: 84%. For the compound `COc1ccc(CCNS(=O)(=O)c2c(C)nc3sccn3c2=O)cc1OC`, the survival was inactive: 87%.

As for `Cc1c2cnn(CC(=O)NCc3ccc(Cl)cc3)c(=O)c2c(C)n1Cc1ccc(F)cc1`, the survival was inactive: 86%. Take `Cc1cc(NS(=O)(=O)c2ccc(NC(=O)COc3ccccc3Br)cc2)no1`: the survival was inactive: 63%. In the case of `Cc1ccccc1Nc1nn2c(=O)c3ccc(C(=O)NCc4cccs4)cc3nc2s1`, the survival was inactive: 75%. Next, `Cc1cc(C)cc(NC(=O)CSc2ccc(-c3cccs3)nn2)c1`: inactive: 90%; `CSc1ccccc1S(=O)(=O)C(C)(C)C`: inactive: 113%. Turning to `COc1ccc(S(=O)(=O)n2nc(C)c(S(=O)(=O)N3CCCCCC3)c2C)cc1C`, the survival was inactive: 55%. On to `CC(=O)Nc1ccc(C)cc1-c1nc2ccccc2n(CC(=O)c2ccc(C)c(C)c2)c1=O`, for which the survival was inactive: 84%. Next, `CN1CCN(c2nc3c(S(=O)(=O)c4ccc(Cl)cc4)nnn3c3ccsc23)CC1`: inactive: 77%; `CCOC(=O)c1c(N)n(-c2ccc(CC)cc2)c2nc3ccccc3nc12`: inactive: 77%. For the compound `O=C(NCCc1csc(-c2ccc(C(F)(F)F)cc2)n1)C(=O)Nc1ccc(F)c(Cl)c1`, the survival is inactive: 101%. For the compound `CCOc1ccccc1NS(=O)(=O)c1ccc(N2CCCCS2(=O)=O)cc1`, the survival is inactive: 113%.

Turning to `Cc1ccc(N(CC(=O)N2CCN(c3ccccc3)CC2)S(=O)(=O)c2c(C)noc2C)cc1`, the survival is inactive: 83%.

As for `Cc1nc(-c2ccc(F)cc2)sc1CCNC(=O)c1cccs1`, the survival is inactive: 152%. Consider `Cc1ccc(C)c(NC(=O)Cn2c(SCC(=O)NCc3ccccc3)nc3ccccc32)c1`, for which the survival is inactive: 73%. Take `O=C(CN1C(=O)CSc2ccc(S(=O)(=O)N3CCOCC3)cc21)NCCCN1CCCCC1`: the survival is inactive: 71%.

As for `COc1ccc(NC(=O)CSc2nc3ccccc3nc2N2CCCCC2)cc1`, the survival was active: 7%. On to `CCc1ccc(NC(=O)Cn2c(=O)n(-c3ccccc3C)c(=O)c3c2c2cc(OC)ccc2n3C)cc1`, for which the survival was inactive: 76%.

For the compound `CC(=O)N1CCOc2cc(S(=O)(=O)NCc3ccccc3Cl)c(Cl)cc21`, the survival was inactive: 81%.

Take `CCN1CCN(C(c2ccccc2Cl)c2sc3nc(-c4ccco4)nn3c2O)CC1` (stereo not drawn): the survival is inactive: 101%. As for `CCOc1ccc(NC(=O)Cn2nc3c(cc2=O)CC(C)CC3)cc1` (stereo not drawn), the survival is inactive: 88%. Take `CCOC(=O)c1[nH]c2c(c1Cc1ccccc1)C(=O)CC(c1ccccc1)C2` (stereo not drawn): the survival is inactive: 84%. Consider `CCOC(=O)c1ccccc1NC(=O)N1CCC(CN2CCOCC2)CC1`, for which the survival was inactive: 83%.

`O=C(COCC(=O)N1CCCC1)N1CCCC1`: the survival is inactive: 103%. `Cc1ccc(-c2noc(-c3nnn(CC(=O)Nc4ccc(C)c(Cl)c4)c3N)n2)cc1`: the survival is inactive: 67%.

`CC(C)Oc1ccc(C(=O)NCC(c2ccc(N(C)C)cc2)N2CCc3ccccc32)cc1` (stereo not drawn): the survival was inactive: 81%. As to `CCn1c(=O)c2sccc2n2c(CCC(=O)Nc3ccc(F)cc3)nnc12`, the survival is inactive: 62%. In the case of `CCN(c1ccccc1)S(=O)(=O)c1nnc(NC(=O)C2CCCCC2)s1`, the survival was inactive: 85%. Next, `COc1ccc2c(c1)c(N1CCCC1=O)c(C(=O)Nc1cc(C)c(Cl)cc1OC)n2C`: inactive: 85%; `O=C(Nc1ccc(Br)cc1)c1cc(S(=O)(=O)NC2CCCC2)ccc1F`: inactive: 55%. As to `Cc1ccc2c(C)c(C(=O)N(Cc3ccc(N(C)C)cc3)Cc3ccco3)oc2c1C`, the survival is inactive: 87%. As to `O=C(CCSCCc1ccccn1)Nc1ccc(Cl)cc1`, the survival was inactive: 60%. As for `Cc1ccc2c(c1)cc1c(=O)n(Cc3ccccc3Cl)nc(C)n12`, the survival is inactive: 91%. Regarding `CCc1ccc2[nH]c(=O)c(CN(Cc3ccco3)C(=S)NCC(C)C)cc2c1`, the survival was inactive: 118%. `CCOC(=O)Cc1ccc(NC(=O)NC(C)c2c(-n3cccc3)sc(C)c2C)cc1` (stereo not drawn): the survival is inactive: 98%.

In the case of `Oc1c(C(c2ccccc2)N2CCCC2)sc2nc(-c3ccco3)nn12` (stereo not drawn), the survival is active: -3%.

Regarding `COc1ccc(-c2onc(C)c2C)cc1S(=O)(=O)NCCc1ccccc1`, the survival is inactive: 57%. Next, `CCN(CC)C(=S)NC(=O)C12CC3CC(CC(C3)C1)C2`: inactive: 101%; `CCC(=O)N1c2ncnn2C2(CCCCC2)[C@@H]2CCCC[C@@H]21`: inactive: 114%. For the compound `COc1ccc(CCN2C(=O)N(c3cccc(OC)c3)C(=O)C2CC(=O)Nc2ccccc2)cc1` (stereo not drawn), the survival was inactive: 119%.

As to `Cc1cc2oc(=O)c(CC(=O)O)c(C)c2c2occ(-c3ccccc3)c12`, the survival was inactive: 61%. For the compound `Cc1ccc(C)c(Cn2c(=O)n(-c3ccccc3)c(=O)c3c4c(sc32)CCCC4)c1`, the survival is inactive: 104%. Consider `COc1cc(-n2c(=O)c3ccccc3n(Cc3cccc(Cl)c3)c2=O)cc(OC)c1OC`, for which the survival is inactive: 129%.

Take `CCOC(=O)c1c(C)[nH]c(CCC(=O)NCc2cc(OC)c(OC)c(OC)c2)c1C`: the survival is inactive: 69%. Turning to `O=C(CSc1nnc(-c2ccccc2)o1)c1ccc2c(c1)OCCO2`, the survival was inactive: 110%. For `COc1ccc(CNC(=O)CN2C(=O)CCn3nc(-c4cn(C)c5ccccc45)cc32)cc1`, the survival was inactive: 80%. In the case of `COC(=O)C1=NN(C(=O)c2cccc(OC)c2)C(C)(O)C1` (stereo not drawn), the survival was inactive: 123%. Take `CCNC(=O)CC1C(=O)N(c2ccc(C)cc2)C(=O)N1CCOC` (stereo not drawn): the survival is inactive: 80%.

Take `O=C(c1ccc2c(c1)N(Cc1cccc(Cl)c1)C(=O)c1ccccc1S2=O)N1CCC(Cc2ccccc2)CC1` (stereo not drawn): the survival was inactive: 130%. For `CCOC(=O)c1c(S(=O)(=O)N2CCC(C(=O)Nc3ccc(C)c(Cl)c3)CC2)c(C)n(C)c1C`, the survival is inactive: 68%.

Regarding `O=C(c1cccc([N+](=O)[O-])c1)N1CCN(c2ccc(Nc3ccccc3)nn2)CC1`, the survival is inactive: 63%. Take `COc1nnc(-c2ccc(N3CCCCC3)c(NC(=O)c3ccc(C)cc3)c2)c2ccccc12`: the survival was inactive: 36%. Regarding `O=C(NC(NC1CCS(=O)(=O)C1)C(=O)c1ccc(Cl)cc1)c1ccco1` (stereo not drawn), the survival is inactive: 121%. Next, `CCn1nc(C)c2c(-c3ccccc3)cc(=O)n(C(C)C(=O)NCCc3ccc(Cl)cc3)c21` (stereo not drawn): inactive: 82%; `O=S(=O)(c1ccc(-c2cnc(C3CC3)o2)cc1)N1CCN(c2ccc(F)cc2)CC1`: inactive: 88%. Consider `CCOc1ccc(NC(=O)CCCn2c(C)c3cnn(-c4ccccc4)c(=O)c3c2C)cc1`, for which the survival was inactive: 89%.

`CCOc1cccc(CNCCCSc2nnnn2C)c1`: the survival is inactive: 88%.

Take `COc1ccc(OC)c(NC(=O)CSC2=Nc3ccccc3C3=NC(CC(=O)NCCc4ccccc4)C(=O)N23)c1` (stereo not drawn): the survival was inactive: 73%. For the compound `Cc1ccc2c(c1)c1c3n2CCN(C(=O)c2ccc(C(F)(F)F)cc2)C3CCC1` (stereo not drawn), the survival was inactive: 49%. As to `Cc1ccccc1-c1nnc(N(C)C(=O)C2CC2)s1`, the survival was inactive: 109%. `COc1ccc(-c2cc(C(F)(F)F)n3nc(C(=O)Nc4cc(C)ccc4C)cc3n2)cc1`: the survival is inactive: 70%. In the case of `CC1=C(C(=O)OCc2ccc(C)cc2)C(c2cccc(F)c2F)CC(=O)N1` (stereo not drawn), the survival is inactive: 85%.

Take `CCOC(=O)c1sc2ccccc2c1S(=O)(=O)N1CCN(c2cc(C)ccc2C)CC1`: the survival was inactive: 73%. With `O=C(C1CCN(c2ncnc3c2nc2n3CCCCC2)CC1)N1CCN(c2ccc(Cl)cc2)CC1`, the survival was inactive: 55%.

`Cc1nn(C(=O)c2cccc(F)c2)c(C)c1S(=O)(=O)N1CCOCC1`: the survival was inactive: 69%.

On to `COc1ccc(CCNC(=O)c2cc3c(=O)oc4ccc(C)cc4c3s2)cc1OC`, for which the survival is inactive: 93%. Turning to `COc1ccc(CC(=O)NC2CCN(CC(=O)c3ccc(F)cc3)CC2)cc1OC`, the survival was inactive: 89%. Turning to `CCNC(=O)c1cc2n(n1)CCCN(Cc1ccc(C)cc1)C2=O`, the survival is inactive: 22%.
